Laboratory results from the CheMixHub viscosity set.
This continues a long series; more values of the same kind are listed elsewhere.

Experiment: xn = mol fraction of the nth substance listed

N#C[S-].[Na+] + O
viscosity [mPa·s], 101.3 kPa
Conditions	293.15 K	298.15 K	303.15 K	308.15 K	313.15 K	318.15 K	323.15 K
x1 = 0.1834	–	–	3.332	2.928	2.616	2.337	2.112
x1 = 0.2074	6.103	5.173	4.446	3.874	3.385	3.006	2.687
x1 = 0.2238	7.343	6.175	5.304	4.569	3.983	3.511	3.118
x1 = 0.2425	9.505	7.869	6.607	5.637	4.859	4.266	3.791
x1 = 0.2618	12.18	10.01	8.34	7.038	6.022	5.191	4.541

OCCNCCO + O
Conditions	viscosity [mPa·s]
298 K, 101.3 kPa, x1 = 0.00216	0.92
298 K, 101.3 kPa, x1 = 0.00361	0.93
298 K, 101.3 kPa, x1 = 0.00841	1.03
298 K, 101.3 kPa, x1 = 0.0131	1.12
298 K, 101.3 kPa, x1 = 0.03464	1.74
298 K, 101.3 kPa, x1 = 0.04057	2.17
298 K, 101.3 kPa, x1 = 0.04888	2.72
308.15 K, 101 kPa, x1 = 0.9012	223.4
313.15 K, 101 kPa, x1 = 0.0501	1.483
313.15 K, 101 kPa, x1 = 0.1004	2.997
313.15 K, 101 kPa, x1 = 0.1509	5.536
313.15 K, 101 kPa, x1 = 0.2006	9.37
313.15 K, 101 kPa, x1 = 0.3008	21.59
313.15 K, 101 kPa, x1 = 0.4014	40.28
313.15 K, 101 kPa, x1 = 0.5011	63.21
313.15 K, 101 kPa, x1 = 0.5957	86.84
313.15 K, 101 kPa, x1 = 0.6968	114.4
313.15 K, 101 kPa, x1 = 0.8034	141.3
313.15 K, 101 kPa, x1 = 0.9012	159.1
318.15 K, 101 kPa, x1 = 0.0501	1.322
318.15 K, 101 kPa, x1 = 0.1004	2.593
318.15 K, 101 kPa, x1 = 0.1509	4.667
318.15 K, 101 kPa, x1 = 0.2006	7.7
318.15 K, 101 kPa, x1 = 0.3008	17.07
318.15 K, 101 kPa, x1 = 0.4014	30.91
318.15 K, 101 kPa, x1 = 0.5011	47.47
318.15 K, 101 kPa, x1 = 0.5957	64.42
318.15 K, 101 kPa, x1 = 0.6968	84.07
318.15 K, 101 kPa, x1 = 0.8034	102.9
318.15 K, 101 kPa, x1 = 0.9012	116
323.15 K, 101 kPa, x1 = 0.0501	1.184
323.15 K, 101 kPa, x1 = 0.1004	2.258
323.15 K, 101 kPa, x1 = 0.1509	3.972
323.15 K, 101 kPa, x1 = 0.2006	6.41
323.15 K, 101 kPa, x1 = 0.3008	13.66
323.15 K, 101 kPa, x1 = 0.4014	24.12
323.15 K, 101 kPa, x1 = 0.5011	36.35
323.15 K, 101 kPa, x1 = 0.5957	49.57
323.15 K, 101 kPa, x1 = 0.6968	62.84
323.15 K, 101 kPa, x1 = 0.8034	76.61
323.15 K, 101 kPa, x1 = 0.9012	85.55
